# Experimental data from the supplement of paper PMC12645437, “Orthogonal IMiD-Degron Pairs Induce Selective Protein Degradation in Cells” (ACS Chemical Biology, 2025).
# The list shows a part of the results.
# Molecular target: no compound (DMSO)
# Test: log2 fold change of degron read counts, EGFP-low vs EGFP+ sorted cells; higher = lower degron-EGFP level without compound (poor expression or instability)
# Conditions: compound: DMSO control; 18 h
# 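Further: jurkat cells carrying a lentiviral library of mutant zinc finger degrons fused to EGFP plus mCherry, mCherry+ cells FACS sorted, degron abundance counted by next-generation sequencing.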
row,Sequence,log2 fold change of degron read counts
1,FDCEQCGAWFTQKGNLLRHIKL,-0.237
2,FCCPICGRGFTQKGNLLRHIKL,0.279
3,FKCSVCGHFFTQKGNLLRHIKL,0.201
4,FNCSVCGHYFTQKGNLLRHIKL,0.741
5,LACEICGFGCTQKGNLLRHIKL,0.0805
6,FVCDQCGAKFTQKGNLLRHIKL,-2.71
7,FFCNQCGHQFTQKGNLLRHIKL,-0.145
8,FLCSVCGHHFTQKGNLLRHIKL,0.0624
9,FRCNQCGHGFTQKGNLLRHIKL,-0.0388
10,FMCDICGASFTQKGNLLRHIKL,-0.928
11,FTCPICGHSFTQKGNLLRHIKL,-1.22
12,FQCPVCGASFTQKGNLLRHIKL,-0.0433
13,FQCPICGHHFTQKGNLLRHIKL,0.473
14,FWCEICGAVFTQKGNLLRHIKL,-0.206
15,FWCEQCGAAFTQKGNLLRHIKL,-0.765
16,FTCDICGARFTQKGNLLRHIKL,-0.556
17,FWCNQCGATFTQKGNLLRHIKL,0.365
18,FVCNQCGHYFTQKGNLLRHIKL,-0.0422
19,FGCDICGAKFTQKGNLLRHIKL,-1.58
20,LMCEICGFCCTQKGNLLRHIKL,0.000358
21,FACNQCGAMFTQKGNLLRHIKL,-0.363
22,FMCSVCGHTFTQKGNLLRHIKL,-1.05
23,FMCNQCGAAFTQKGNLLRHIKL,-0.967
24,LRCEICGFFCTQKGNLLRHIKL,1.3
25,LSCEICGFNCTQKGNLLRHIKL,-0.129

row,Sequence,log2 fold change of degron read counts
1,FICEVCGACFTQKGNLLRHIKL,-0.365
2,FMCEICGAYFTQKGNLLRHIKL,-0.537
3,LECEICGFTCTQKGNLLRHIKL,-1.03
4,FCCNQCGRAFTQKGNLLRHIKL,-0.276
5,FYCEICGAGFTQKGNLLRHIKL,-1.25
6,FHCPICGRGFTQKGNLLRHIKL,-2.01
7,FWCEICGRKFTQKGNLLRHIKL,-0.632
8,FQCDICGANFTQKGNLLRHIKL,-1.06
9,FRCPICGHSFTQKGNLLRHIKL,-0.923
10,FNCNQCGRAFTQKGNLLRHIKL,-0.773
11,FKCEVCGAAFTQKGNLLRHIKL,-1.21
12,FSCNVCGAYFTQKGNLLRHIKL,-0.187
13,FKCDVCGARFTQKGNLLRHIKL,-0.959
14,FQCNQCGAIFTQKGNLLRHIKL,-0.353
15,FKCPQCGANFTQKGNLLRHIKL,-1.54
16,FNCPVCGADFTQKGNLLRHIKL,-0.307
17,FTCEQCGARFTQKGNLLRHIKL,-1.95
18,FDCNQCGREFTQKGNLLRHIKL,-0.642
19,FECEICGAWFTQKGNLLRHIKL,-1.25
20,FECDICGALFTQKGNLLRHIKL,-1.71
21,LSCEICGFACTQKGNLLRHIKL,-0.979
22,FGCNVCGANFTQKGNLLRHIKL,-0.636
23,FQCEICGASFTQKGNLLRHIKL,-1.56
24,LECNQCGFECTQKGNLLRHIKL,-0.644
25,FVCPICGALFTQKGNLLRHIKL,0.604
